Test results taken from ChEMBL document CHEMBL4888484, “Replenishing the malaria drug discovery pipeline: Screening and hit evaluation of the MMV Hit Generation Library 1 (HGL1) against asexual blood stage Plasmodium falciparum ,using a nano luciferase reporter read-out” (2022).
Hit rate of the full screen: of about 150,000 compounds, about 540 (0.36%) showed an effect of 50% or more. This is one part of the list.

test system: Plasmodium falciparum; test: Primary screen in NF54 nanoGlo assay, in single point, at 2uM, 72h; a lower Z score goes with more inhibition; assay type: functional, Erythrocyte; conditions: timepoint 72 hour

Compound	% Inhibition [%]	Z score
O=C(Nc1cccc(Cl)c1Br)N[C@@H]1C[C@H]2CC[C@@H]1O2	-9	1.25
Cn1c(Cn2cccn2)nnc1C1CCN(c2cc(N)nc(N)n2)CC1	-9	0.86
O=C1CN(CCNC(=O)c2ccoc2C(F)(F)F)CCN1	-1	0.13
O=C(c1nccnc1-c1nc2ccccc2s1)N1CCCC1	-2	0.4
Cc1noc(C2CC2)c1N[C@@H](C)CCc1ccccc1F	1	-0.12
Cc1nn(CCNS(=O)(=O)c2cccs2)c(C)c1-c1ccsc1	24	-3.06
Cc1ccc(CNC(=O)C2CCN(c3c(-n4c(C)ccc4C)c(C)nn3-c3ccccc3)CC2)o1	-5	0.74
CCCc1c(NC(=O)NC[C@H]2CCC3(CCCC3)O2)cnn1-c1cc(C)ccn1	-12	1.31
COc1nc(CNS(=O)(=O)c2c(C)n[nH]c2C)nc(N(C)C)n1	-13	1.7
O=C(c1c[nH]c(-c2ccccc2)n1)N1CCC(n2cc(CO)nn2)CC1	-8	1.37
O=C(O)[C@@H]1CCN(Cc2nnsc2Cl)c2ccc(Br)cc21	4	-0.66
Cc1nnc([C@H](C)Nc2ccc(F)c(NC(=O)c3ccsc3)c2)o1	-4	0.6
COc1cc2c(cc1OC)CN(C(=O)OC(C)(C)C)[C@H](C(=O)NC[C@H]1CC[C@H](C(=O)O)CC1)C2	-17	1.78
CCNS(=O)(=O)c1cc(C)ccc1C	36	-0.73
C[C@@H]1CN(C(=O)c2ccc(F)cc2F)CC[C@@]1(O)C1CCOCC1	-6	0.9
CCc1cccc(NC(=O)CNC(=O)N2CC(=O)Nc3ccccc32)c1	-4	0.53
Cn1ncnc1NC(=O)CCCc1ccccc1	-5	0.75
Cc1ccccc1OCC(=O)NCc1cc(-c2ccccn2)nn1C	-20	2.9
O=C(CC1(CC(=O)N2CCCO2)CCCC1)N1CCCO1	-13	1.62
CCc1cnc(C)nc1-c1cccc(-c2ccn(C[C@@H](O)CC)n2)c1	-6	0.9
CCCn1c(C)cnc1C1CN(C(=O)NC2CCCCC2)C1	-5	0.63
Cc1csc([C@H](C)NC(=O)c2cccn2C(C)C)n1	-11	1.46

Compound	% Inhibition [%]	Z score
Cc1ccc(OCC2CCN(S(=O)(=O)c3c(C)n[nH]c3C)CC2)nn1	-15	1.7
CC(C)C(C)(C)CNC(=O)N[C@@H](C)Cn1ncc2ccccc2c1=O	-13	1.89
Cc1ccc(N2CCC([C@]3(c4cccnc4)NC(=O)NC3=O)CC2)nn1	3	-0.72
CC(C)C(NC(=O)c1ccc(-c2ccc3c(c2)OCCO3)s1)C(C)C	-12	1.13
Cc1cnc(N)nc1NCC1(Cn2ccnc2C)CC1	0	0.04
O=C(C1CCN(S(=O)(=O)c2ccc(Br)cc2)CC1)N1CCN(C(c2ccccc2)c2ccccc2)CC1	0	0
COCC[C@H]1COCCN1C(=O)c1cccc(Nc2nccc(C)n2)c1	-12	1.6
C[C@@H](C(=O)NCc1csc(N2CCCC2)n1)N1CCCC1=O	-9	1.79
Cn1cc(C(NC(=O)c2nc3cccnc3[nH]2)[C@H]2C[C@H](O)C2)cn1 (some centres not stated)	-8	1.56
CC(C)c1nc(CN2CCC[C@@H]2C(=O)O)cs1	-4	0.48
Cc1cnc(C)c(N2C[C@@H]3OC(=O)N(CCc4ccccn4)[C@@H]3C2)n1	-17	1.49
Cc1noc(C)c1N(C)CC(=O)N1CCOC2CCCCC21 (configuration not stated)	-7	0.66
O=C(C1=CCCC1)N1C[C@@H]2CCS(=O)(=O)[C@@H]2C1	11	-1.39
CC[C@H]1CCCCCN1C(=O)NCCc1nnc(C)s1	-9	1.2
O=C(N[C@@H]1CN(C(=O)c2ccoc2)CC[C@@H]1CO)c1ccccc1	-15	2.06
COc1cn(C)c(C(=O)N2CCN(c3ccc(Cl)cc3)CC2)cc1=O	-1	0.1
C[C@@H](CN1CCCCC1)NCc1ccc2[nH]cnc2c1	5	-0.69
O=C1CCCc2nn(-c3ccccc3)c(-c3ccccc3O)c21	-20	1.85
CCCCNC(=O)c1ccc(CN2C(=O)CCn3nccc32)cc1	18	-2.08
CCc1nn(C)cc1NC1CCCC1NC(=O)OC(C)(C)C (configuration not stated)	8	-1.08
CCOCCCNC(=O)c1nnn(-c2ccc3ncccc3c2)c1C	-12	1.67
CC(C)CCNC(=O)c1nn(Cc2ccc(F)cc2)c2c1COCC2	-22	2.78

Compound	% Inhibition [%]	Z score
COC1CCCC1NC(=O)c1cncnc1-c1ccccc1 (configuration not stated)	-19	1.9
CCO[C@H]1COCC[C@@H]1NC(=O)c1c[nH]c(=O)c(Cl)c1	-3	0.5
CC(C)Cn1cncc1Cn1cc([C@H]2CCOC2)nn1	5	-0.97
C[C@H]1CCCCN1CC(=O)Nc1ccc2c(c1)OCO2	-3	0.63
COc1ccc(-c2cc(C(=O)N3CCCCCCC3)[nH]n2)cc1	-18	2.29
Cc1cnn(CC(=O)N2CCCN(C(=O)Cc3cccc(F)c3)CC2)c1	-7	0.93
CN(C)c1ccc(-c2cnc3cccnn23)cn1	-7	1.25
O=C(NC1CCN(C2CC2)CC1)c1cc2ccccc2[nH]1	-7	1.05
O=S(=O)(Cc1cccc(NCc2cnc3ccccn23)c1)C1CCCCC1	-5	0.71
CCC1CC(NS(=O)(=O)C2(C)CC2)CCO1 (configuration not stated)	8	-0.92
Cc1cc(C(=O)Nc2nccn2CC(C)C)oc1Br	-5	0.91
CC(C)(C)C(=O)NCC(c1ccco1)c1ccco1	-13	1.93
CCOCCNC(=O)c1coc(COc2ccc3c(c2)OCO3)n1	-10	0.95
O=C(Cn1ccc2ccccc2c1=O)N1CCOC2CCCCC21 (configuration not stated)	-5	0.72
O=C(C[C@H]1C(=O)Nc2ccccc2N1C(=O)c1ccccc1)Nc1ccccc1Cl	27	-3.06
Cn1cc(-c2cc3n(n2)CCC(=O)N3CC(=O)N2CCN(c3ccccn3)CC2)c2ccccc21	-4	0.7
Cc1ccccc1[C@@H](C)CC(=O)NCCn1cnnc1C	-1	0.07
Fc1ccc(-c2ccco2)cc1NCc1cn2cccnc2n1	-26	3.72
Cc1cc(C#N)c(N(C)CCCCN2CCOCC2)nc1C	-13	1.42
CCc1nc(C)cc(NCCc2ccnn2C)n1	-13	2.16
CCc1ccccc1NC(=O)CN1CCN(C(=O)c2ccc3cc(OC)ccc3c2)CC1	-49	5.75
OC[C@@]1(CCc2ccccc2)CCCN(Cc2c[nH]nc2-c2cccc(F)c2)C1	7	-0.86

Compound	% Inhibition [%]	Z score
CC(C)(C)C(=O)NCC(=O)Nc1c(O)cccc1F	0	-0.01
O[C@H](COCCc1c[nH]nn1)Cc1cccc(Cl)c1	1	-0.14
CCCc1occc1C(=O)NCC(=O)N1CCC[C@H]1C(=O)NC	-11	1.48
COc1cccc2ncn([C@H]3COC[C@@H]3N3CCCC3)c(=O)c12	-15	1.36
O=C(CCc1cn2ccccc2n1)N1CCC[C@@]2(CCCO2)CC1	-7	1.36
C[C@H](NC(=O)Nc1cccnn1)c1nnnn1C1CC1	-2	0.27
Cc1nc(C)c(CNC(C)CC(O)c2cccs2)s1 (configuration not stated)	-4	0.48
CCC(C)N(C(=O)COc1ccc(Cl)cc1C)C(C)CC (configuration not stated)	5	-0.58
COc1cccc2c1Oc1ccccc1N=C2N1CCN(C(=O)C(C)C)CC1	-4	0.5
CCNC(=O)NC1CCC(Nc2nc(C3CCCCC3)nc3c2c(C)nn3-c2ccccc2)CC1 (configuration not stated)	-12	1.77
CCn1ccnc1CN(C)C(=O)Nc1cc(C)ccc1OC	2	-0.21
CCN(CC(=O)N1CCCCCC1)C(=O)c1cc(Cl)cc2cccnc12	-9	1.04
Cc1cc(CN2CCN(C(=O)Cn3nc(C)cc3C)CC2)on1	-3	0.56
CO[C@H]1C[C@@H](O)C12CCN(c1cc(N)nc(N3CCOCC3)n1)CC2	-17	2.79
CC1CCCCC1NC(=O)C1CCOCC1 (configuration not stated)	3	-0.43
CC(=O)Nc1ccc(Oc2ccc(-c3noc(-c4ccc(C)c(NC(C)=O)c4)n3)cc2)cc1	-14	1.64
COCCC[C@]1(C(=O)O)CCCN(C(=O)CCC(F)(F)F)C1	-16	2.74
Cc1ccc(NC(=O)C2[C@@H]3C=C[C@]4(O3)C(C(=O)NC3CCCCC3)N(CCN3CCCCCC3)C(=O)[C@H]24)cc1Cl (some centres not stated)	8	-1.31
O=C(c1scc2c1OCCO2)N1CCNC(=O)C12CCCC2	4	-0.81
COc1ccc(C(=O)N2CC(=O)c3ccccc3S2(=O)=O)cc1OC	-44	5.17
